Publication PMC11912937 (The Journal of Cell Biology, 2025)

Biological target: T1, FACT complex (SPT16/SSRP1), full length, untreated (human, UniProt Q9Y5B9; Q08945, phosphorylated as purified from insect cells; residues not printed | phosphorylated as purified from insect cells; residues not given)
T1 construct: SPT16, FACT subunit; SSRP1, FACT subunit; His tags are followed by a TEV site; cleavage is not described; also called FAcilitates Chromatin Transcription complex; full-length FACT; source: Tnao38 insect cells (baculovirus), purified (HisTrap, HiTrap Q, SEC)
Assay: pull-down; amylose resin, MBP-CENP-C fusion proteins (fragments or full-length ^MBPCENP-C^EGFP) as baits, FACT or FACT constructs as preys; 3 µM each; 20 mM Hepes pH 6.8, 300 mM NaCl, 2.5% glycerol, 1 mM TCEP, 0.01% Tween; 4°C
Details: both partners purified

B1: ^MBPCENP-C^[…]-His (domain or fragment)
chain: not shown
notes: not shown: MBP, N-terminal, kept
  binding result: binds

B2: ^MBPCENP-C^[…]-His (domain or fragment, human)
chain: EMYSKNAEKPSRSKRTIKQKQRRKF[sequence of about 120 residues omitted]SPVYSNSSVRNELPMHHNSSRKSTKKTNQSSKNIRKKTIPLKRQKTATKGNQRVQKFLNAEGS
notes: as for B1
  binding result: binds

B3: ^MBPCENP-C^721-C (domain or fragment)
chain: not shown
notes: CENP-C, […] (721 to the C-terminus); The methods say that it dimerizes; also called CENP-C^[…]; source: plasmid as previously described; purified (HisTrap, heparin, SEC on Superose 6); not shown: MBP, N-terminal, kept
  binding result: binds
